US12427157B2, “Methods for treatment of diseases involving acidic or hypoxic diseased tissues” (Cybrexa 1, Inc., priority 2018, dated 2025)
Values joined by “and” are separate entries in the source; they are usually repeats but may differ in a detail not shown here. Equal entries are not always repeated. For at least one compound, name, drawing or mass did not settle the structure. Residues, ends and D or L forms follow the SMILES beside them. *: point of attachment. X2 = NC(=O)c1cccc2[nH]c(-c3ccc(COC(=O)OCCS*)cc3)nc12

Tests used:
[1] = system: PARP; assay: Elisa PARylation assay in HeLa cells; type: cell-based
[2] = system: PARP; assay: Elisa PARylation assay in (BRCA−/−) DLD-1 cells, 16 h; type: cell-based, Human; settings: pH 7.4, (BRCA−/−) DLD-1 cells, read-out: IC50 Elisa PARP Inhibition(nM) pH 7.4 (BRCA−/−) DLD-1 cells, 16 h
[3] = pH 5.5, 1 hour at 37° C., read-out: IC50 Elisa PARP Inhibition(nM) pH 5.5
[4] = pH 8.0, 1 hour at 37° C., read-out: IC50 Elisa PARP Inhibition(nM) pH 8.0

| SMILES | IC50 [1, 3] | IC50 [1, 4] | IC50 [2] [nM] |
| --- | --- | --- | --- |
| CC(C)C[C@H](NC(=O)[C@H](Cc1ccc(O)cc1)NC(=O)[C@H](C)NC(=O)[C@H](CCCNC(=N)N)NC(=O)[C@H](Cc1c[nH]c2ccccc12)NC(=O)[C@@H]1CCCN1C(=O)[C@H](CC(N)=O)NC(=O)[C@H](CCC(N)=O)NC(=O)[C@H](CC(=O)O)NC(=O)[C@H](CC(=O)O)NC(=O)[C@H](C)N)C(=O)N[C@@H](CC(=O)O)C(=O)N[C@@H](CC(C)C)C(=O)N[C@@H](CC(C)C)C(=O)N[C@@H](Cc1ccccc1)C(=O)N1CCC[C@H]1C(=O)N[C@H](C(=O)N[C@@H](CC(=O)O)C(=O)N[C@H](C(=O)N[C@@H](CC(C)C)C(=O)N[C@@H](CC(C)C)C(=O)N[C@@H](CC(C)C)C(=O)N[C@@H](CC(=O)O)C(=O)N[C@@H](CC(C)C)C(=O)N[C@@H](CC(C)C)C(=O)N[C@@H](Cc1c[nH]c2ccccc12)C(=O)N[C@@H](CSSCCOC(=O)OCc1ccc(-c2nc3c(C(N)=O)cccc3[nH]2)cc1)C(=O)NCC(=O)O)[C@@H](C)O)[C@@H](C)O [Example 1] | 115 nM | 587 nM | – |
| CC[C@H](C)[C@H](NC(=O)[C@@H]1CCCN1C(=O)[C@H](CC(N)=O)NC(=O)[C@H](CCC(N)=O)NC(=O)[C@H](CCC(=O)O)NC(=O)[C@H](C)N)C(=O)N[C@@H](Cc1ccc(O)cc1)C(=O)N[C@@H](Cc1c[nH]c2ccccc12)C(=O)N[C@@H](C)C(=O)N[C@@H](CCCNC(=N)N)C(=O)N[C@@H](Cc1ccc(O)cc1)C(=O)N[C@@H](C)C(=O)N[C@@H](CC(=O)O)C(=O)N[C@@H](Cc1c[nH]c2ccccc12)C(=O)N[C@@H](CC(C)C)C(=O)N[C@@H](Cc1ccccc1)C(=O)N[C@H](C(=O)N[C@H](C(=O)N1CCC[C@H]1C(=O)N[C@@H](CC(C)C)C(=O)N[C@@H](CC(C)C)C(=O)N[C@@H](CC(C)C)C(=O)N[C@@H](CC(C)C)C(=O)N[C@@H](CC(=O)O)C(=O)N[C@@H](CC(C)C)C(=O)N[C@@H](C)C(=O)N[C@@H](CC(C)C)C(=O)N[C@@H](CC(C)C)C(=O)N[C@H](C(=O)N[C@@H](CC(=O)O)C(=O)N[C@@H](C)C(=O)N[C@@H](CC(=O)O)C(=O)N[C@@H](CCC(=O)O)C(=O)N[C@@H](CSSCCOC(=O)OCc1ccc(-c2nc3c(C(N)=O)cccc3[nH]2)cc1)C(=O)NCC(=O)O)C(C)C)[C@@H](C)O)[C@@H](C)O [Example 2] (H-AEQNPIYWARYADWLFTTPLLLLDLALLVDADEC(X2)G-OH; N-terminus and C-terminus assumed) | 93 nM and 135 nM | 1290 nM and 1400 nM | – |
| CC(C)C[C@H](NC(=O)[C@H](Cc1ccc(O)cc1)NC(=O)[C@H](C)NC(=O)[C@H](CCCNC(=N)N)NC(=O)[C@H](Cc1c[nH]c2ccccc12)NC(=O)[C@@H]1CCCN1C(=O)[C@H](CC(N)=O)NC(=O)[C@H](CCC(N)=O)NC(=O)[C@H](CC(=O)O)NC(=O)[C@H](CC(=O)O)NC(=O)[C@H](C)N)C(=O)N[C@@H](CC(=O)O)C(=O)N[C@@H](CC(C)C)C(=O)N[C@@H](CC(C)C)C(=O)N[C@@H](Cc1ccccc1)C(=O)N1CCC[C@H]1C(=O)N[C@H](C(=O)N[C@@H](CC(=O)O)C(=O)N[C@H](C(=O)N[C@@H](CC(C)C)C(=O)N[C@@H](CC(C)C)C(=O)N[C@@H](CC(C)C)C(=O)N[C@@H](CC(=O)O)C(=O)N[C@@H](CC(C)C)C(=O)N[C@@H](CC(C)C)C(=O)N[C@@H](Cc1c[nH]c2ccccc12)C(=O)N[C@@H](CC(=O)O)C(=O)N[C@@H](C)C(=O)N[C@@H](CC(=O)O)C(=O)N[C@@H](CCC(=O)O)C(=O)N[C@@H](CSS[C@@H](C)COC(=O)OCc1ccc(-c2nc3c(C(N)=O)cccc3[nH]2)cc1)C(=O)NCC(=O)O)[C@@H](C)O)[C@@H](C)O [Example 6] | 239 nM | 456 nM | – |
| CC(C)C[C@H](NC(=O)[C@H](Cc1ccc(O)cc1)NC(=O)[C@H](C)NC(=O)[C@H](CCCNC(=N)N)NC(=O)[C@H](Cc1c[nH]c2ccccc12)NC(=O)[C@@H]1CCCN1C(=O)[C@H](CC(N)=O)NC(=O)[C@H](CCC(N)=O)NC(=O)[C@H](CC(=O)O)NC(=O)[C@H](CC(=O)O)NC(=O)[C@H](C)N)C(=O)N[C@@H](CC(=O)O)C(=O)N[C@@H](CC(C)C)C(=O)N[C@@H](CC(C)C)C(=O)N[C@@H](Cc1ccccc1)C(=O)N1CCC[C@H]1C(=O)N[C@H](C(=O)N[C@@H](CC(=O)O)C(=O)N[C@H](C(=O)N[C@@H](CC(C)C)C(=O)N[C@@H](CC(C)C)C(=O)N[C@@H](CC(C)C)C(=O)N[C@@H](CC(=O)O)C(=O)N[C@@H](CC(C)C)C(=O)N[C@@H](CC(C)C)C(=O)N[C@@H](Cc1c[nH]c2ccccc12)C(=O)N[C@@H](CC(=O)O)C(=O)N[C@@H](C)C(=O)N[C@@H](CC(=O)O)C(=O)N[C@@H](CCC(=O)O)C(=O)N[C@@H](CSS[C@H](C)COC(=O)OCc1ccc(-c2nc3c(C(N)=O)cccc3[nH]2)cc1)C(=O)NCC(=O)O)[C@@H](C)O)[C@@H](C)O [Example 7] | 282 nM | 542 nM | – |
| CC(C)C[C@H](NC(=O)[C@H](Cc1ccc(O)cc1)NC(=O)[C@H](C)NC(=O)[C@H](CCCNC(=N)N)NC(=O)[C@H](Cc1c[nH]c2ccccc12)NC(=O)[C@@H]1CCCN1C(=O)[C@H](CC(N)=O)NC(=O)[C@H](CCC(N)=O)NC(=O)[C@H](CC(=O)O)NC(=O)[C@H](CC(=O)O)NC(=O)[C@H](C)N)C(=O)N[C@@H](CC(=O)O)C(=O)N[C@@H](CC(C)C)C(=O)N[C@@H](CC(C)C)C(=O)N[C@@H](Cc1ccccc1)C(=O)N1CCC[C@H]1C(=O)N[C@H](C(=O)N[C@@H](CC(=O)O)C(=O)N[C@H](C(=O)N[C@@H](CC(C)C)C(=O)N[C@@H](CC(C)C)C(=O)N[C@@H](CC(C)C)C(=O)N[C@@H](CC(=O)O)C(=O)N[C@@H](CC(C)C)C(=O)N[C@@H](CC(C)C)C(=O)N[C@@H](Cc1c[nH]c2ccccc12)C(=O)N[C@@H](CC(=O)O)C(=O)N[C@@H](C)C(=O)N[C@@H](CC(=O)O)C(=O)N[C@@H](CCC(=O)O)C(=O)N[C@@H](CSSCCOC(=O)N1CCC[C@@H](c2ccc(-n3cc4cccc(C(N)=O)c4n3)cc2)C1)C(=O)NCC(=O)O)[C@@H](C)O)[C@@H](C)O [Example 10] | 785 nM | 3080 nM | – |
| CC(C)C[C@H](NC(=O)[C@H](Cc1ccc(O)cc1)NC(=O)[C@H](C)NC(=O)[C@H](CCCNC(=N)N)NC(=O)[C@H](Cc1c[nH]c2ccccc12)NC(=O)[C@@H]1CCCN1C(=O)[C@H](CC(N)=O)NC(=O)[C@H](CCC(N)=O)NC(=O)[C@H](CC(=O)O)NC(=O)[C@H](CC(=O)O)NC(=O)[C@H](C)N)C(=O)N[C@@H](CC(=O)O)C(=O)N[C@@H](CC(C)C)C(=O)N[C@@H](CC(C)C)C(=O)N[C@@H](Cc1ccccc1)C(=O)N1CCC[C@H]1C(=O)N[C@H](C(=O)N[C@@H](CC(=O)O)C(=O)N[C@H](C(=O)N[C@@H](CC(C)C)C(=O)N[C@@H](CC(C)C)C(=O)N[C@@H](CC(C)C)C(=O)N[C@@H](CC(=O)O)C(=O)N[C@@H](CC(C)C)C(=O)N[C@@H](CC(C)C)C(=O)N[C@@H](Cc1c[nH]c2ccccc12)C(=O)N[C@@H](CC(=O)O)C(=O)N[C@@H](C)C(=O)N[C@@H](CC(=O)O)C(=O)N[C@@H](CCC(=O)O)C(=O)N[C@@H](CSSc1ccc(COC(=O)N2CCC[C@]2(C)c2nc3c(C(N)=O)cccc3[nH]2)cc1)C(=O)NCC(=O)O)[C@@H](C)O)[C@@H](C)O [Example 56] | – | – | 103 |
